Laboratory results as given in PMC12136788.
The list shows a part of the results.

T1: UNK ZnF1-3 (human, UniProt Q9C0B0 31-174)
T1 sequence: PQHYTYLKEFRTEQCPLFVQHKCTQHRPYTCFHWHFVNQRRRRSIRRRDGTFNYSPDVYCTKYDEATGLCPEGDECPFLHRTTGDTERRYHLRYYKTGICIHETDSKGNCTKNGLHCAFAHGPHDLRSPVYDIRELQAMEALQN

B1: chr11:77376804:77376805:-_ENSG00000048649_ENST00000308488|hu_mus|motif|central (ssRNA)
RNA: GGGAGUUCUACAGUCCGACGAUCUGGAUUUUAAUAGAAGUAUAUAAUGGCCAAAGGCCAAAACUACAUUCAAACCCUGCGGAUAUAUCCAGGCCGAUAGAAAAUUCACACACACACACACACACACACACACACACACACACACAACAGAGGAUUGAGCAUCA
B2: chr12:76570751:76570752:-_ENSMUSG00000021051_ENSMUST00000021447|perfect_dup|FALSE|FALSE (ssRNA)
RNA: GGGAGUUCUACAGUCCGACGAUCUGUUUCAUAAACAAACCUUAGAAAAAUAUUGUUAAUCUGUUUUCGGAUAAAUGCUCUAAGACCAAGAAACUUGCCAUAAAUUCUGUGUAAGACUGUUUUUAAGUAGUCCCGUUCCCGAGGCAACAGAGGAUUGAGCAUCA
B3: chr16:94915998:94915999:+_ENSMUSG00000022897_ENSMUST00000023614|mus_mus|FALSE|FALSE (ssRNA)
RNA: GGGAGUUCUACAGUCCGACGAUCCGCCCUCCUGACAGUGCUGUGCUCAAGGUGAGGCCUCUGUACGGAAAUGCUCAUCAACUACCAAGCUCAAAACAAUCCACAGGCUUGACAUUUAAUUACAAAAUCAAUAUGGGUUUCCUGCAACAGAGGAUUGAGCAUCA
B4: chr5:21408736:21408737:-_ENSMUSG00000042453_ENSMUST00000161356|mus_hu|mus_mus_mus_hu_False|28_78 (ssRNA)
RNA: GGGAGUUCUACAGUCCGACGAUCGUUGACAGAGUUGUAGAUGGUGGCUUCAUGGAACUGGAACGGGGAGCAGCCAAUGCUGUUAGAAGAGGAAGGAAGGCACUGGGUCUGCACGAGCUGCCAGGAAUCCGAUCUUGCAUCCUUCAACAGAGGAUUGAGCAUCA
B5: chr7:141445308:141445309:+_ENSG00000106028_ENST00000265304|hu_mus|FALSE|FALSE (ssRNA)
RNA: GGGAGUUCUACAGUCCGACGAUCUAUGAUUGUUGUUGCUUGCCGCCUCACAUUGUUUUUAUCCAUGUACUCGCCAUAGUCCACUUUCCCUUCCACAAAUAUACGAGCCCCCUUUUUCACAUACUGAUAUGCCACAUCUCUGAGCAACAGAGGAUUGAGCAUCA
B6: chrX:20248820:20248821:+_ENSMUSG00000001924_ENSMUST00000001989|mus_mus|mus_mus_mus_hu_True|58_58 (ssRNA)
RNA: GGGAGUUCUACAGUCCGACGAUCGGCGAAGUCCGUCACCACAAAGUCAGGUUCUGCCAGUGAGGCCACCAAGGAUUUAAAACUAAUCUUCUUAGGUACUUUGACCUGACUGACGAUGCCUCCACGGAUGUAGUCGGAGAAGUUCAACAGAGGAUUGAGCAUCA
B7: chr15:31385891:31385892:-_ENSMUSG00000039100_ENSMUST00000090227|mus_hu|motif|central (ssRNA)
RNA: GGGAGUUCUACAGUCCGACGAUCUCUACAAUAGUUAUUCCUAGACCUUAGAUUAGUCAUUACAUUUUUAUUUAAGGUACGGUGUUACUUUCAUGACUACAAAAUGAGGCACUCGUACAAAACAGGAAUGAAAACAUACAUAUACAACAGAGGAUUGAGCAUCA
B8: chr9:95013113:95013114:-_ENSG00000196305_ENST00000443024|hu_hu|hu_hu_hu_mus_False|8_28 (ssRNA)
RNA: GGGAGUUCUACAGUCCGACGAUCCUCAGUCAGAAAGGGCGUGUAAGGGGCCAUCAGUCUGCACAGAGAAAGCAGGACACUGAACAGUGUCUCCAGAGCCAUGACACAAUCCUCCAUCCCACUCUCACCCUUUAAUCUCCUCCUCAACAGAGGAUUGAGCAUCA
B9: chr5:32599118:32599119:+_ENSG00000113387_ENST00000502897|hu_hu|FALSE|FALSE (ssRNA)
RNA: GGGAGUUCUACAGUCCGACGAUCAGAAAUACCUUUUCUUCCUGGUUUCAUUUCACCUUCAGGAUCCAUCCAAUAUUCUCUAAUAUCAAUUAGCACUUUGCCUUUAAAAUCGCGAACACUAACGUACCUCAUUUUCCCAAUCUGCAACAGAGGAUUGAGCAUCA
B10: chr3:176740097:176740098:-_ENSG00000177565_ENST00000430069|hu_mus|hu_hu_hu_mus_True|8_48 (ssRNA)
RNA: GGGAGUUCUACAGUCCGACGAUCUGUUUUGUAUACCACAAAAGGAGGCACUUUCAGUAUCUGCAAAAGGUGUUUAGUCCUAAAACAUACUUACCUAGAGGAUAACUCAGGAAAACAAUCUGUUACACUAGUAUCUAUACUCCACAACAGAGGAUUGAGCAUCA
B11: 170108086_170108206_2274_3pUTR_ENSG00000136603_ENST00000458537|human|control|control (ssRNA)
RNA: GGGAGUUCUACAGUCCGACGAUCUGUUGUUUUAAAUAAGUUCUCAUUACUUCUUCCAUGAUUUUUCCCUUAUCAUCCUCACAAAUGACAUCUUUCACAAGAAGCGGAGAUGAAGCGGCAGCAACAAGGCCAAUUCCCACUUUGCAACAGAGGAUUGAGCAUCA
B12: chr1:220276048:220276049:+_ENSG00000067704_ENST00000302637|hu_hu|hu_hu_hu_mus_True|1_98 (ssRNA)
RNA: GGGAGUUCUACAGUCCGACGAUCGCAAAUUGCCUGGUUGGCUGGAAUUGUCCAAGGCUGGGUGGUCCAAACUAAAACGCUAACAGGGGAUGAGGCAUCUGUAAGAGACUCCAACUUCGGAGGAGGUCUCAGGAGGGGAAAUUUCAACAGAGGAUUGAGCAUCA
B13: 102312509_102312629_5825_3pUTR_ENSG00000166135_ENST00000299163|human|control|control (ssRNA)
RNA: GGGAGUUCUACAGUCCGACGAUCUACAGAACUGACAAUGGAAGGGCAAGAACACACAGCAGACACAAAACAAGAGGACUAGCCAUGGGCAAAAUAAACAGAGCUGUCAAAAAUCAGAAAAGGGAGACGGCCCUAAGAUGAUCACAACAGAGGAUUGAGCAUCA
B14: chr11:77336104:77336105:-_ENSG00000074201_ENST00000525064|hu_mus|hu_hu_hu_mus_False|18_108 (ssRNA)
RNA: GGGAGUUCUACAGUCCGACGAUCCUCGCACAUUGCAGUGAACAUCGCCUCCAAUGCUGACUUAUCACUGGGCACAAAUCGAAAUUCAGAAAUGGGUUCAACAUCAUCAUUGUCUUCUUCCUCUUCUUCAGAGAGAGGUUCUUUCAACAGAGGAUUGAGCAUCA

Molecular target: T1, UNK ZnF1-3
Assay: nsRBNS (natural sequence RNA bind-n-seq); RBNS binding buffer (assumed for nsRBNS): 25 mM Tris pH 7.5, 150 mM KCl, 3 mM MgCl2, 0.01% Triton X-100, 500 ug/ml BSA, 20 U/ml SUPERase-In, 4 C; UNK is unkempt and MSI1 is Musashi-1; names of the RNAs are library labels; protein concentration not given here; high values mean tight binding

In order of falling binding signal:
1. B13  2.71 enrichment R
2. B2  2.19 enrichment R
3. B1  2.1 enrichment R
4. B3  1.81 enrichment R
5. B4  1.67 enrichment R
6. B11  1.32 enrichment R
7. B12  1.3 enrichment R
8. B8  1.27 enrichment R
9. B6  0.935 enrichment R
10. B14  0.84 enrichment R
11. B9  0.824 enrichment R
12. B10  0.802 enrichment R
13. B7  0.714 enrichment R
14. B5  0.634 enrichment R
